Experimental data from the supplement of paper PMC8728848.
The other results are listed elsewhere or left out.

Experiments:
Test in all cases: glycan array binding signal (z-score within array); higher = stronger binding
Settings in all cases: glycan notation: IUPAC condensed, linker removed
[1] = target: Gal3S(b1-3)[Fuc(a1-4)]GlcNAc
Procedure, shortened: (§1)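 Arrays were curated from the Consortium for Functional Glycomics database, 3228 in total, and kept only where the protein sequence was available. Binding is expressed as a within-array Z-score. This score was averaged across arrays of the same protein sequence at different concentrations or buffers and across linkers, and negative values can be read as non-binding.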

[2] = target: Gal3S(b1-4)Glc
Procedure, shortened: as §1

[3] = target: Gal3S(b1-4)Glc6S
Procedure, shortened: as §1

[4] = target: Gal3S(b1-4)GlcNAc
Procedure, shortened: as §1

[5] = target: Gal3S(b1-4)[Fuc(a1-3)]Glc6S
Procedure, shortened: as §1

[6] = target: Gal3S(b1-4)[Fuc(a1-3)]GlcNAc
Procedure, shortened: as §1

[7] = target: Gal3S(b1-4)[Fuc(a1-3)]GlcNAc6S
Procedure, shortened: as §1

[8] = target: Gal3S4S(b1-4)GlcNAc
Procedure, shortened: as §1

[9] = target: Gal3S6S(b1-4)GlcNAc
Procedure, shortened: as §1

[10] = target: Gal3S6S(b1-4)GlcNAc6S
Procedure, shortened: as §1

[11] = target: Gal4S(b1-4)GlcNAc
Procedure, shortened: as §1

[12] = target: Gal4S6S(b1-4)GlcNAc
Procedure, shortened: as §1

[13] = target: Gal6P(b1-4)GlcNAc
Procedure, shortened: as §1

[14] = target: Gal6S(b1-3)GlcNAc
Procedure, shortened: as §1

[15] = target: Gal6S(b1-3)GlcNAc6S
Procedure, shortened: as §1

[16] = target: Gal6S(b1-4)Glc
Procedure, shortened: as §1

[17] = target: Gal6S(b1-4)Glc6S
Procedure, shortened: as §1

[18] = target: Gal6S(b1-4)GlcNAc
Procedure, shortened: as §1

[19] = target: Gal6S(b1-4)GlcNAc6S
Procedure, shortened: as §1

[20] = target: GalNAc(a1-3)Gal
Procedure, shortened: as §1

[21] = target: GalNAc(a1-3)GalNAc
Procedure, shortened: as §1

[22] = target: GalNAc(a1-3)GalNAc(b1-3)Gal(a1-4)Gal(b1-4)Glc
Procedure, shortened: as §1

[23] = target: GalNAc(a1-3)GalNAc(b1-3)Gal(a1-4)Gal(b1-4)GlcNAc
Procedure, shortened: as §1

[24] = target: GalNAc(b1-3)Gal
Procedure, shortened: as §1

[25] = target: GalNAc(b1-3)Gal(a1-4)Gal(b1-4)GlcNAc
Procedure, shortened: as §1

[26] = target: GalNAc(b1-3)Gal(a1-4)Gal(b1-4)GlcNAc(b1-3)Gal(b1-4)Glc
Procedure, shortened: as §1

[27] = target: GalNAc(b1-3)Gal(a1-6)Gal(b1-4)Glc
Procedure, shortened: as §1

[28] = target: GalNAc(b1-3)GalNAc
Procedure, shortened: as §1

[29] = target: GalNAc(b1-3)GlcNAc
Procedure, shortened: as §1

[30] = target: GalNAc(b1-4)Gal(b1-4)Glc
Procedure, shortened: as §1

[31] = target: GalNAc(b1-4)GlcNAc
Procedure, shortened: as §1

[32] = target: GalNAc(b1-4)GlcNAc(b1-2)Man
Procedure, shortened: as §1

[33] = target: GalNAc(b1-4)GlcNAc(b1-2)Man(a1-3)[GalNAc(b1-4)GlcNAc(b1-2)Man(a1-6)]Man(b1-4)GlcNAc(b1-4)GlcNAc
Procedure, shortened: as §1

[34] = target: GalNAc(b1-4)GlcNAc(b1-3)GalNAc(b1-4)GlcNAc
Procedure, shortened: as §1

[35] = target: GalNAc(b1-4)GlcNAc6S
Procedure, shortened: as §1

[36] = target: GalNAc(b1-6)GalNAc
Procedure, shortened: as §1

[37] = target: GalNAc3S(b1-4)GlcNAc
Procedure, shortened: as §1

B1: Siglec-9 (Homo sapiens), Q9Y336 (protein)
chain: MLLLLLPLLWGRERAEGQTSKLLTMQSSVTVQEGLCVHVPCSFSYPSHGWIYPGPVVHGYWFREGANTDQDAPVATNNPARAVWEETRDRFHLLGDPHTKNCTLSIRDARRSDAGRYFFRMEKGSIKWNYKHHRLSVNVTALTHRPNILIPGTLESGCPQNLTCSVPWACEQGTPPMISWIGTSVSPLDPSTTRSSVLTLIPQPQDHGTSLTCQVTFPGASVTTNKTVHLNVSYPPQNLTMTVFQGDGTVSTVLGNGSSLSLPEGQSLRLVCAVDAVDSNPPARLSLSWRGLTLCPSQPSNPGVLELPWVHLRDAAEFTCRAQNPLGSQQVYLNVSLQSKATSGVTQGVVGGAGATALVFLSFCVIFVVVRSCRKKSARPAAGVGDTGIEDANAVRGSASQGPLTEPWAEDSPPDQPPPASARSSVGEGELQYASLSFQMVKPWDSRGQEATDTEYSEIKIHR
- glycan array binding signal (z-score) [1]: -0.131
- glycan array binding signal (z-score) [2]: 0.072
- glycan array binding signal (z-score) [3]: 0.141
- glycan array binding signal (z-score) [4]: -0.121
- glycan array binding signal (z-score) [5]: 0.094
- glycan array binding signal (z-score) [6]: 0.136
- glycan array binding signal (z-score) [7]: 0.139
- glycan array binding signal (z-score) [8]: -0.355
- glycan array binding signal (z-score) [9]: -0.091
- glycan array binding signal (z-score) [10]: 0.189
- glycan array binding signal (z-score) [11]: -0.304
- glycan array binding signal (z-score) [12]: -0.088
- glycan array binding signal (z-score) [13]: 0.071
- glycan array binding signal (z-score) [14]: -0.117
- glycan array binding signal (z-score) [15]: -0.069
- glycan array binding signal (z-score) [16]: -0.152
- glycan array binding signal (z-score) [17]: 0.024
- glycan array binding signal (z-score) [18]: -0.174
- glycan array binding signal (z-score) [19]: -0.076
- glycan array binding signal (z-score) [20]: -0.173
- glycan array binding signal (z-score) [21]: -0.162
- glycan array binding signal (z-score) [22]: -0.273
- glycan array binding signal (z-score) [23]: -0.17
- glycan array binding signal (z-score) [24]: 0.074
- glycan array binding signal (z-score) [25]: -0.021
- glycan array binding signal (z-score) [26]: -0.128
- glycan array binding signal (z-score) [27]: -0.143
- glycan array binding signal (z-score) [28]: -0.304
- glycan array binding signal (z-score) [29]: -0.117
- glycan array binding signal (z-score) [30]: 0.137
- glycan array binding signal (z-score) [31]: -0.111
- glycan array binding signal (z-score) [32]: -0.119
- glycan array binding signal (z-score) [33]: -0.194
- glycan array binding signal (z-score) [34]: -0.061
- glycan array binding signal (z-score) [35]: 0.058
- glycan array binding signal (z-score) [36]: -0.064
- glycan array binding signal (z-score) [37]: -0.152
